Experimental data: publication PMC5893419 (Bioorganic & medicinal chemistry letters, 2018)

Test system: VRSA HIP14300
Assay: microbe, parasite or virus in culture
Conditions: Staphylococcus aureus, 20 h

In the case of `CN[C@H](CC(C)C)C(=O)N[C@H]1C(=O)N[C@@H](CC(N)=O)C(=O)N[C@H]2C(=O)N[C@H]3C(=O)N[C@H](C(=O)N[C@H](C(=O)O)c4cc(O)cc(O)c4-c4cc3ccc4O)[C@H](O)c3ccc(c(Cl)c3)Oc3cc2cc(c3O[C@@H]2O[C@H](CO)[C@@H](O)[C@H](O)[C@H]2O[C@H]2C[C@](C)(N)[C@H](O)[C@H](C)O2)Oc2ccc(cc2Cl)[C@H]1O` [vancomycin], the MIC is reported as > 128 µg/mL.
